{"source": "the supplement of paper PMC8728848", "binders": {"B1": {"name": "FimA-N3 (Actinomyces oris) (protein)", "chain": "MHHHHHHSSGVDLGTENLYFQSNAGLQGAQFQLYKAKNAYANTCSNEKEGAPIAINGQTTLTTDAQGAIDIKGLFISDSIDGADRDNQVNAMERCYVLVETKAPAGYVLPAGNGAATPVKVKAGEETTDN"}}, "assay_in_all_cases": "glycan array binding signal (z-score within array); higher = stronger binding", "details_in_all_cases": "glycan notation: IUPAC condensed, linker removed", "key": {"Fuc(a1-3)GlcNAc": {"target": "Fuc(a1-3)GlcNAc", "method_in_brief": "(§1)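 Arrays were curated from the Consortium for Functional Glycomics database, 3228 in total, and kept only where the protein sequence was available. Binding is expressed as a within-array Z-score. This score was averaged across arrays of the same protein sequence at different concentrations or buffers and across linkers, and negative values can be read as non-binding.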"}, "[1]": {"target": "Fuc(a1-3)[Gal(b1-4)]Glc6S", "method_in_brief": "as §1"}, "[2]": {"target": "Fuc(a1-3)[Gal(b1-4)]GlcNAc", "method_in_brief": "as §1"}, "[3]": {"target": "Fuc(a1-3)[Gal(b1-4)]GlcNAc(b1-2)Man", "method_in_brief": "as §1"}, "[4]": {"target": "Fuc(a1-3)[Gal(b1-4)]GlcNAc(b1-2)Man(a1-3)[Fuc(a1-3)[Gal(b1-4)]GlcNAc(b1-2)Man(a1-6)]Man(b1-4)GlcNAc(b1-4)GlcNAc", "method_in_brief": "as §1"}, "[5]": {"target": "Fuc(a1-3)[Gal(b1-4)]GlcNAc(b1-2)Man(a1-3)[Fuc(a1-3)[Gal(b1-4)]GlcNAc(b1-2)Man(a1-6)]Man(b1-4)GlcNAc(b1-4)[Fuc(a1-6)]GlcNAc", "method_in_brief": "as §1"}, "[6]": {"target": "Fuc(a1-3)[Gal(b1-4)]GlcNAc(b1-3)Gal(b1-3)[Fuc(a1-4)]GlcNAc", "method_in_brief": "as §1"}, "[7]": {"target": "Fuc(a1-3)[Gal(b1-4)]GlcNAc(b1-3)Gal(b1-4)[Fuc(a1-3)]GlcNAc", "method_in_brief": "as §1"}, "[8]": {"target": "Fuc(a1-3)[Gal(b1-4)]GlcNAc(b1-3)Gal(b1-4)[Fuc(a1-3)]GlcNAc(b1-3)Gal(b1-4)[Fuc(a1-3)]GlcNAc", "method_in_brief": "as §1"}, "[9]": {"target": "Fuc(a1-3)[Gal(b1-4)]GlcNAc(b1-3)GalNAc", "method_in_brief": "as §1"}, "[10]": {"target": "Fuc(a1-3)[Gal(b1-4)]GlcNAc(b1-6)GalNAc", "method_in_brief": "as §1"}, "[11]": {"target": "Fuc(a1-3)[Gal(b1-4)]GlcNAc(b1-6)[Gal(b1-3)GlcNAc(b1-3)]Gal(b1-4)Glc", "method_in_brief": "as §1"}, "[12]": {"target": "Fuc(a1-3)[Gal(b1-4)]GlcNAc6S", "method_in_brief": "as §1"}, "[13]": {"target": "Fuc(a1-3)[Gal3S(b1-4)]Glc", "method_in_brief": "as §1"}, "[14]": {"target": "Fuc(a1-3)[Gal3S(b1-4)]GlcNAc", "method_in_brief": "as §1"}, "[15]": {"target": "Fuc(a1-3)[Gal3S(b1-4)]GlcNAc6S", "method_in_brief": "as §1"}, "[16]": {"target": "Fuc(a1-3)[GalNAc(b1-4)]GlcNAc", "method_in_brief": "as §1"}, "[17]": {"target": "Fuc(a1-3)[GalNAc(b1-4)]GlcNAc6S", "method_in_brief": "as §1"}, "Fuc(a1-4)GlcNAc": {"target": "Fuc(a1-4)GlcNAc", "method_in_brief": "as §1"}, "Fuc(b1-3)GlcNAc": {"target": "Fuc(b1-3)GlcNAc", "method_in_brief": "as §1"}, "Gal(a1-2)Gal": {"target": "Gal(a1-2)Gal", "method_in_brief": "as §1"}, "Gal(a1-3)Gal": {"target": "Gal(a1-3)Gal", "method_in_brief": "as §1"}, "Gal(a1-3)Gal(b1-3)GlcNAc": {"target": "Gal(a1-3)Gal(b1-3)GlcNAc", "method_in_brief": "as §1"}, "[18]": {"target": "Gal(a1-3)Gal(b1-3)GlcNAc(b1-2)Man", "method_in_brief": "as §1"}, "[19]": {"target": "Gal(a1-3)Gal(b1-3)GlcNAc(b1-2)Man(a1-3)[Gal(a1-3)Gal(b1-3)GlcNAc(b1-2)Man(a1-6)]Man(b1-4)GlcNAc(b1-4)GlcNAc", "method_in_brief": "as §1"}, "[20]": {"target": "Gal(a1-3)Gal(b1-3)GlcNAc(b1-3)GalNAc", "method_in_brief": "as §1"}, "[21]": {"target": "Gal(a1-3)Gal(b1-3)GlcNAc(b1-6)GalNAc", "method_in_brief": "as §1"}, "[22]": {"target": "Gal(a1-3)Gal(b1-3)[Fuc(a1-4)]GlcNAc(b1-2)Man(a1-3)[Gal(a1-3)Gal(b1-3)[Fuc(a1-4)]GlcNAc(b1-2)Man(a1-6)]Man(b1-4)GlcNAc(b1-4)GlcNAc", "method_in_brief": "as §1"}, "Gal(a1-3)Gal(b1-4)Glc": {"target": "Gal(a1-3)Gal(b1-4)Glc", "method_in_brief": "as §1"}, "Gal(a1-3)Gal(b1-4)GlcNAc": {"target": "Gal(a1-3)Gal(b1-4)GlcNAc", "method_in_brief": "as §1"}, "[23]": {"target": "Gal(a1-3)Gal(b1-4)GlcNAc(b1-2)Man", "method_in_brief": "as §1"}, "[24]": {"target": "Gal(a1-3)Gal(b1-4)GlcNAc(b1-2)Man(a1-3)[Gal(a1-3)Gal(b1-4)GlcNAc(b1-2)Man(a1-6)]Man(b1-4)GlcNAc(b1-4)GlcNAc", "method_in_brief": "as §1"}, "[25]": {"target": "Gal(a1-3)Gal(b1-4)GlcNAc(b1-3)GalNAc", "method_in_brief": "as §1"}, "[26]": {"target": "Gal(a1-3)Gal(b1-4)GlcNAc(b1-6)GalNAc", "method_in_brief": "as §1"}, "[27]": {"target": "Gal(a1-3)Gal(b1-4)[Fuc(a1-3)]GlcNAc", "method_in_brief": "as §1"}, "[28]": {"target": "Gal(a1-3)Gal(b1-4)[Fuc(a1-3)]GlcNAc(b1-2)Man(a1-3)[Gal(a1-3)Gal(b1-4)[Fuc(a1-3)]GlcNAc(b1-2)Man(a1-6)]Man(b1-4)GlcNAc(b1-4)GlcNAc", "method_in_brief": "as §1"}, "Gal(a1-3)GalNAc": {"target": "Gal(a1-3)GalNAc", "method_in_brief": "as §1"}, "[29]": {"target": "Gal(a1-3)[Gal(a1-4)]Gal(b1-4)GlcNAc", "method_in_brief": "as §1"}, "[30]": {"target": "Gal(a1-4)Gal(b1-3)GlcNAc(b1-2)Man(a1-3)[Gal(a1-4)Gal(b1-3)GlcNAc(b1-2)Man(a1-6)]Man(b1-4)GlcNAc(b1-4)GlcNAc", "method_in_brief": "as §1"}, "Gal(a1-4)Gal(b1-4)Glc": {"target": "Gal(a1-4)Gal(b1-4)Glc", "method_in_brief": "as §1"}, "Gal(a1-4)Gal(b1-4)GlcNAc": {"target": "Gal(a1-4)Gal(b1-4)GlcNAc", "method_in_brief": "as §1"}, "[31]": {"target": "Gal(a1-4)Gal(b1-4)GlcNAc(b1-2)Man(a1-3)[Gal(a1-4)Gal(b1-4)GlcNAc(b1-2)Man(a1-6)]Man(b1-4)GlcNAc(b1-4)GlcNAc", "method_in_brief": "as §1"}, "[32]": {"target": "Gal(a1-4)Gal(b1-4)GlcNAc(b1-3)Gal(b1-4)Glc", "method_in_brief": "as §1"}, "Gal(a1-4)GlcNAc": {"target": "Gal(a1-4)GlcNAc", "method_in_brief": "as §1"}, "Gal(a1-6)Glc": {"target": "Gal(a1-6)Glc", "method_in_brief": "as §1"}}, "note": "The list shows a part of the results.", "data": [{"binder": "B1", "values": [{"measurement": "glycan array binding signal (z-score)", "setting": "Fuc(a1-3)GlcNAc", "result": -0.15}, {"measurement": "glycan array binding signal (z-score)", "setting": "[1]", "result": 0.088}, {"measurement": "glycan array binding signal (z-score)", "setting": "[2]", "result": -0.369}, {"measurement": "glycan array binding signal (z-score)", "setting": "[3]", "result": -0.667}, {"measurement": "glycan array binding signal (z-score)", "setting": "[4]", "result": -0.24}, {"measurement": "glycan array binding signal (z-score)", "setting": "[5]", "result": -0.425}, {"measurement": "glycan array binding signal (z-score)", "setting": "[6]", "result": -0.373}, {"measurement": "glycan array binding signal (z-score)", "setting": "[7]", "result": -0.338}, {"measurement": "glycan array binding signal (z-score)", "setting": "[8]", "result": -0.114}, {"measurement": "glycan array binding signal (z-score)", "setting": "[9]", "result": 0.18}, {"measurement": "glycan array binding signal (z-score)", "setting": "[10]", "result": -0.189}, {"measurement": "glycan array binding signal (z-score)", "setting": "[11]", "result": -0.182}, {"measurement": "glycan array binding signal (z-score)", "setting": "[12]", "result": -0.332}, {"measurement": "glycan array binding signal (z-score)", "setting": "[13]", "result": -0.479}, {"measurement": "glycan array binding signal (z-score)", "setting": "[14]", "result": -0.417}, {"measurement": "glycan array binding signal (z-score)", "setting": "[15]", "result": 0.377}, {"measurement": "glycan array binding signal (z-score)", "setting": "[16]", "result": 0.059}, {"measurement": "glycan array binding signal (z-score)", "setting": "[17]", "result": 4.08}, {"measurement": "glycan array binding signal (z-score)", "setting": "Fuc(a1-4)GlcNAc", "result": -0.103}, {"measurement": "glycan array binding signal (z-score)", "setting": "Fuc(b1-3)GlcNAc", "result": -0.128}, {"measurement": "glycan array binding signal (z-score)", "setting": "Gal(a1-2)Gal", "result": -0.164}, {"measurement": "glycan array binding signal (z-score)", "setting": "Gal(a1-3)Gal", "result": -0.131}, {"measurement": "glycan array binding signal (z-score)", "setting": "Gal(a1-3)Gal(b1-3)GlcNAc", "result": -0.271}, {"measurement": "glycan array binding signal (z-score)", "setting": "[18]", "result": -0.429}, {"measurement": "glycan array binding signal (z-score)", "setting": "[19]", "result": -0.119}, {"measurement": "glycan array binding signal (z-score)", "setting": "[20]", "result": -0.493}, {"measurement": "glycan array binding signal (z-score)", "setting": "[21]", "result": -0.12}, {"measurement": "glycan array binding signal (z-score)", "setting": "[22]", "result": -0.191}, {"measurement": "glycan array binding signal (z-score)", "setting": "Gal(a1-3)Gal(b1-4)Glc", "result": -0.324}, {"measurement": "glycan array binding signal (z-score)", "setting": "Gal(a1-3)Gal(b1-4)GlcNAc", "result": -0.354}, {"measurement": "glycan array binding signal (z-score)", "setting": "[23]", "result": -0.007}, {"measurement": "glycan array binding signal (z-score)", "setting": "[24]", "result": 1.03}, {"measurement": "glycan array binding signal (z-score)", "setting": "[25]", "result": 0.243}, {"measurement": "glycan array binding signal (z-score)", "setting": "[26]", "result": -0.335}, {"measurement": "glycan array binding signal (z-score)", "setting": "[27]", "result": -0.563}, {"measurement": "glycan array binding signal (z-score)", "setting": "[28]", "result": -0.667}, {"measurement": "glycan array binding signal (z-score)", "setting": "Gal(a1-3)GalNAc", "result": -0.42}, {"measurement": "glycan array binding signal (z-score)", "setting": "[29]", "result": -0.201}, {"measurement": "glycan array binding signal (z-score)", "setting": "[30]", "result": -0.264}, {"measurement": "glycan array binding signal (z-score)", "setting": "Gal(a1-4)Gal(b1-4)Glc", "result": -0.294}, {"measurement": "glycan array binding signal (z-score)", "setting": "Gal(a1-4)Gal(b1-4)GlcNAc", "result": 0.769}, {"measurement": "glycan array binding signal (z-score)", "setting": "[31]", "result": -0.557}, {"measurement": "glycan array binding signal (z-score)", "setting": "[32]", "result": -0.388}, {"measurement": "glycan array binding signal (z-score)", "setting": "Gal(a1-4)GlcNAc", "result": -0.69}, {"measurement": "glycan array binding signal (z-score)", "setting": "Gal(a1-6)Glc", "result": -0.713}]}]}
